# Reference: PubChem BioAssay AID2546 (National Center for Advancing Translational Sciences (NCATS), 2010)
# Values joined by “and” are separate entries in the source; they are usually repeats but may differ in a detail not shown here. Equal entries are not always repeated. In all, about 310,000 compounds went through this assay and about 11,000 (3.5%) were called active. This list was built around the results that the source calls inconclusive (neither active nor inactive); the mix of calls is not that of the screen. Calls follow the shape of the dose curve; as a rule, active = well fitted inhibition curve with a large enough effect; inconclusive = small, poorly fitted or top-dose-only effect, or effect the other way; inactive = flat fitted curve, though single readings scatter. No potency is given beside an inconclusive call; the fits are too rough.
# Test: VP16 counterscreen qHTS for inhibitors of ROR gamma transcriptional activity;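 also: Gal4-VP16 expression switched on by copper sulfate through the metallothionein promoter; nearly all actives have a fitted effect of over 50% in size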
# Conditions: Drosophila S2 Gal4-VP16 UAS-luciferase, luminescence, 20 h; activity, negative = inhibition: at 53.6 µM (top of the series)
# % is scaled to controls: 0 for no effect and ±100 for the full control effect; potency is read from the fitted curve at half-maximal effect; tags tell the direction and shape of the fitted curve.
Compound,"activity, negative = inhibition",Potency
CCOc1cc(/C=C2\SC(=O)N=C2N)ccc1O,inactive: -27.8%,–
Cc1ccccc1NC(=S)NCCSc1ccc(Cl)cc1,–,"inconclusive [inhibitor, single point]"
O=C(N/N=C/c1cn(-c2cccs2)nc1-c1ccccc1)c1ccccc1Cl,–,active: 7.94 µM
COc1cc(Br)cc(/C=N/NC(=O)Cc2ccc(C(F)(F)F)cc2[N+](=O)[O-])c1O,–,active: 0.355 µM
Cc1c(Cl)cccc1NC(=O)Cn1c(-c2ccc(F)cc2)noc1=O,–,"inconclusive [inhibitor, single point]"
COc1ccc(/C=N/Nc2nnc(C)n2N)cc1OC,–,"inconclusive [inhibitor, single point]"
CC1=CC(C)(C)n2c(O)c(N=NC(N)=S)c3cc(C)cc1c32,–,active: 1.78 µM
O=C(NNc1nc(-c2ccccc2)cs1)c1ccccc1,–,active: 3.98 µM
O=C(c1ccccc1)c1ccc(OCCCCN2CCCCC2)cc1,inactive: 0.164%,–
COc1cc(Br)cc(/C=C/c2ccc3cccc(O)c3n2)c1O,–,active: 3.16 µM
CCCCOc1ccc(/C=N/NC(=S)Nc2cccc(C)c2C)cc1,–,active: 3.16 µM
O=[N+]([O-])c1ccc(NC(=S)NCCc2ccc(F)cc2)cc1,–,"inconclusive [inhibitor, single point]"
Cc1cc(O)c(C)c(O)c1/C=N/NC(=O)c1cccnc1,–,active: 7.94 µM
CCc1ccc(CN2CCC(C(=O)Nc3ccc(Oc4ccccc4)nc3)CC2)o1,–,"inconclusive [inhibitor, single point]"
CN1CCc2c(sc(NC(=O)c3ccc(S(=O)(=O)N4CCCC4)cc3)c2C(N)=O)C1,inactive: -5.93%,–
COc1ccc(C(=O)NCCNc2ccc([N+](=O)[O-])cc2)cc1OC,–,"inconclusive [inhibitor, single point]"
O=c1c2ccccc2c(/C=N/c2n[nH]c(CCCO)n2)c(O)n1-c1ccccc1Cl,inactive: -6.1%,–
O=C(COc1ccccc1)NNC(=S)NC(=O)c1ccc(Cl)cc1Cl,–,"inconclusive [inhibitor, single point]"
Cc1n[nH]c(C)c1CCCCOc1ccccc1,–,"inconclusive [inhibitor, single point]"
CN1CCN(c2cc(N3CCN(C(=O)c4ccco4)CC3)c3c4c(onc24)-c2ccccc2C3=O)CC1,–,"inconclusive [inhibitor, single point]"
CSCC[C@H](NC(=O)[C@@H]1CSC2c3ccccc3C(=O)N21)C(=O)NCc1ccco1 (some centres not stated),inactive: -5.66%,–
Clc1ccc(COc2cccc(CNCc3ccncc3)c2)cc1,–,"inconclusive [inhibitor, single point]"
C=C(C)CNC(=S)N/N=C(\C)c1ccc(-n2ccnc2)cc1,–,active: 7.94 µM
CCn1c(SCC(=O)NNC(=S)Nc2ccc(C)cc2)nnc1-c1ccc(Cl)cc1,–,active: 1.41 µM
Cc1ccc2nsnc2c1NC(=O)CCl,–,"inconclusive [inhibitor, single point]"
CCC(=O)c1ccc(OCC(O)CN2CCCCC2)cc1 (configuration not stated),–,"inconclusive [inhibitor, single point]"

Compound,"activity, negative = inhibition",Potency
O=C(c1ccccc1)c1c[nH]c2ccccc12,inactive: 22.6%,–
O=C1C(C2=NC(C(=O)O)C3C(=O)N(c4ccccc4)C(=O)C23)=C(O)c2ccccc21 (configuration not stated),–,active: 12.6 µM
COc1ccc(-c2cc(C(=O)NN)[nH]n2)cc1,–,"inconclusive [inhibitor, single point]"
S=C(NCCc1ccccn1)NC1CC2CCC1C2 (configuration not stated),–,"inconclusive [inhibitor, single point]"
O=C(N/N=C/c1ccc(Br)s1)c1cccs1,–,active: 5.01 µM
COc1nccnc1NS(=O)(=O)c1ccc(NC(=S)NC(=O)/C=C/c2ccccc2)cc1,–,"inconclusive [activator, single point]"
O=C1CCSc2ccc(Cl)cc2N1Cc1cccc(Cl)c1,–,"inconclusive [inhibitor, partial curve, poor fit]"
C=CCn1cccc(/C=C/C(=O)c2ccc(C(C)(C)C)cc2)c1=S,–,"inconclusive [inhibitor, single point]"
CCOC(=O)C1CCN(S(=O)(=O)c2ccc3c(c2)NC(=O)CS3)CC1,–,"inconclusive [inhibitor, full curve, poor fit]"
C/C(Cl)=C\Cn1c(O)c(N=NC(N)=S)c2ccccc21,–,active: 5.01 µM
Cc1ccc(S(=O)(=O)N2CCN(c3ncnc4sccc34)CC2)cc1,–,active: 5.01 µM
CCOC(=O)NCCOc1ccc(Oc2ccccc2)cc1,–,"inconclusive [inhibitor, single point]"
O=C(CN(CCO)c1ccccc1)Nc1cccc(S(=O)(=O)N2CCCC2)c1,–,"inconclusive [inhibitor, single point]"
COC(=O)c1ccc(NC(=O)C(OC)c2ccccc2)cc1 (configuration not stated),inactive: 0.0695% [at 10 µM],–
O=C(O)c1ccc2c(c1)C(=O)N([C@H](Cc1ccc3ccccc3c1)C(=O)O)C2=O,inactive: -3.13%,–
Cc1cccc(NC(=O)c2nc[nH]c2C(=O)NCC(=O)OCc2ccccc2)c1,–,"inconclusive [inhibitor, single point]"
COc1ccc2c(c1)c(=O)oc1cc(OCC(=O)N3CCCC(C)C3)ccc12 (configuration not stated),–,active: 10 µM
Cc1cc(C(=O)N/N=C/c2cccc([N+](=O)[O-])c2)c(C)n1-c1ccccc1,inactive: -8.23%,–
N#C/C(=C\c1ccc(O)c(O)c1)C(=O)NCCCCc1ccccc1,–,active: 31.6 µM
Cc1ccc(NC(=S)Nc2ccc(Cl)c(Cl)c2)c(OC(F)F)c1,–,"inconclusive [inhibitor, single point]"
COc1ccc(C(=O)NNC(=O)c2cccc(F)c2)cc1,inactive: -5.32%,–
CC1(C)C2CCC1(C)C(OCC[N+](C)(C)CC(=O)OC1CCCCC1)C2 (configuration not stated),–,"inconclusive [inhibitor, single point]"
COc1ccc(-c2nnc(NC(=O)C3=COCCO3)o2)cc1,–,active: 2.82 µM
COc1ccccc1NC(=S)N1CCc2cc(OC)c(OC)cc2C1,–,"inconclusive [inhibitor, single point]"
O=C(CCSCc1ccccc1)Nc1ccc2c(c1)OCCO2,inactive: 6.08%,–
CCOc1ccc(/C=N/NC(=O)c2nnn(-c3nonc3N)c2-c2cccs2)cc1,inactive: -5.93%,–

Compound,"activity, negative = inhibition",Potency
CC1CCCC(NC(=O)CNC(=S)N(Cc2ccccc2)Cc2cccs2)C1C (configuration not stated),–,"inconclusive [inhibitor, single point]"
COc1cc2nc(CN(CCC(C)C)Cc3nc4cc(OC)c(OC)cc4c(=O)[nH]3)[nH]c(=O)c2cc1OC,–,active: 6.31 µM
Cc1cc(C)cc(/C=C/C2OCC(O)C2Oc2ccc(C3CCCC3)cc2)c1 (configuration not stated),inactive: -1.79% [at 10 µM] and inactive: -2.98% [at 10 µM],–
OCCNc1nc(Nc2ccccc2)nc2ccccc12,inactive: -7.13%,–
C=CCSC1=N/C(=C\c2sccc2C)C(=O)S1,–,"inconclusive [activator, partial curve]"
S=C(NC12CC3CC(CC(C3)C1)C2)N1CCCC1,–,"inconclusive [inhibitor, single point]"
O=C(CCCCl)NC(=S)Nc1cc(C(F)(F)F)ccc1N1CCOCC1,–,"inconclusive [inhibitor, single point]"
Cn1c(Sc2nc3ccccc3n2C)nc2ccccc21,–,"inconclusive [inhibitor, single point]"
O=C(Nn1cnnc1)c1ccc(Cl)cc1,inactive: -4.15%,–
c1ccc(CN2CN=C(Nc3nc4ccccc4s3)NC2)cc1,inactive: 5.19%,–
Cc1ccc(S(=O)(=O)Nc2ccc(O)c3ncccc23)cc1,–,"inconclusive [inhibitor, single point]"
S=C(Nc1cc(Cl)cc(Cl)c1)N1CCCC1,–,"inconclusive [inhibitor, single point]"
Cc1onc(-c2ccccc2)c1C(=O)NNC(=S)NC(=O)/C=C/c1cccs1,–,active: 4.47 µM
CCn1c(SC(C)C(=O)O)nc2sc3c(c2c1=O)CCC3 (configuration not stated),–,active: 7.08 µM
CN(C)CCCNC(=S)NCC(c1ccc(Cl)cc1Cl)c1c[nH]c2ccccc12 (configuration not stated),–,"inconclusive [inhibitor, partial curve]"
Cc1ccc(C(C)C)c(OCc2ccc(C(=O)N/N=C/c3ccc(O)cc3O)cc2)c1,–,active: 7.08 µM
Cn1nc(CC(=O)NCc2ccc(C(F)(F)F)cc2)c2ccccc2c1=O,–,"inconclusive [inhibitor, single point]"
CC1(C)CC(=O)CC(=O)/C1=N\Nc1c(Cl)cc(Cl)cc1Cl,–,"inconclusive [activator, partial curve]"
COc1cc(C(=O)Nc2nc3ccccc3[nH]2)ccc1OC(F)F,–,active: 7.94 µM
Cc1ccc(CC2S/C(=N/c3ccccn3)NC2=O)cc1 (configuration not stated),–,active: 3.55 µM
O=C(Cc1csc(Nc2nc(=S)[nH]c3ccccc23)n1)NCc1ccc(Cl)cc1,–,active: 10 µM
CCOc1ccccc1NC(=S)N1CCN(c2cccc(OC)c2)CC1,–,"inconclusive [inhibitor, single point]"
CCOc1ccc(/C=N/n2nnnc2N)cc1O,–,"inconclusive [inhibitor, single point]"
COCCn1c(=O)cnc2cnc(Nc3cccc(OC)c3)nc21,–,"inconclusive [inhibitor, single point]"
C=C1C(=O)O[C@@H]2[C@H]1[C@@H](OC(=O)/C(C)=C/C)C/C(C)=C\C(=O)/C=C(\C)[C@@H]2O,–,active: 11.2 µM
